Measured values taken from PMC7732508.
No constants are given. Whether binding was seen depends on the method and setting. Binding seen in cells or lysates may run through a third protein. Some binding calls cover weakened binding; strength is not graded here. For some of these results: Tags and fused reporters may be left off the sequences shown.

By UniProt entry, the sequences of proteins in these tests, tags left out. Where a name states a change or a piece, a line headed by the entry shows the natural chain unless it says otherwise. Chains listed by the source or under a name are the forms on record and can include a tag or linker. Residues count along the entry.
UniProt Q9BYM8: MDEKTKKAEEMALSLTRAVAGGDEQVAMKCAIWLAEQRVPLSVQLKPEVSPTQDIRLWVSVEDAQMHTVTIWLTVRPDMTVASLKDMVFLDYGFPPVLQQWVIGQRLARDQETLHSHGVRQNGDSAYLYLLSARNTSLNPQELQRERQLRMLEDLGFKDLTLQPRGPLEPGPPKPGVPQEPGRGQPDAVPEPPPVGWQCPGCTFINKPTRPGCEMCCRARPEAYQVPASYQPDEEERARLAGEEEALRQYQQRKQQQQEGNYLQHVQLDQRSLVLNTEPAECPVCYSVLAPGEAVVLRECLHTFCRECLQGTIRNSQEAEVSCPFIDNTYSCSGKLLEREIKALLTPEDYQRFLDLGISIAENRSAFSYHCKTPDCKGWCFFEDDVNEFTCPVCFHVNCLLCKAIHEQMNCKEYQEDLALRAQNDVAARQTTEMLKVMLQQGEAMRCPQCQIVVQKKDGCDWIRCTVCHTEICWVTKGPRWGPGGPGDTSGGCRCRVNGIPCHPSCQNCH
UniProt Q96EP0: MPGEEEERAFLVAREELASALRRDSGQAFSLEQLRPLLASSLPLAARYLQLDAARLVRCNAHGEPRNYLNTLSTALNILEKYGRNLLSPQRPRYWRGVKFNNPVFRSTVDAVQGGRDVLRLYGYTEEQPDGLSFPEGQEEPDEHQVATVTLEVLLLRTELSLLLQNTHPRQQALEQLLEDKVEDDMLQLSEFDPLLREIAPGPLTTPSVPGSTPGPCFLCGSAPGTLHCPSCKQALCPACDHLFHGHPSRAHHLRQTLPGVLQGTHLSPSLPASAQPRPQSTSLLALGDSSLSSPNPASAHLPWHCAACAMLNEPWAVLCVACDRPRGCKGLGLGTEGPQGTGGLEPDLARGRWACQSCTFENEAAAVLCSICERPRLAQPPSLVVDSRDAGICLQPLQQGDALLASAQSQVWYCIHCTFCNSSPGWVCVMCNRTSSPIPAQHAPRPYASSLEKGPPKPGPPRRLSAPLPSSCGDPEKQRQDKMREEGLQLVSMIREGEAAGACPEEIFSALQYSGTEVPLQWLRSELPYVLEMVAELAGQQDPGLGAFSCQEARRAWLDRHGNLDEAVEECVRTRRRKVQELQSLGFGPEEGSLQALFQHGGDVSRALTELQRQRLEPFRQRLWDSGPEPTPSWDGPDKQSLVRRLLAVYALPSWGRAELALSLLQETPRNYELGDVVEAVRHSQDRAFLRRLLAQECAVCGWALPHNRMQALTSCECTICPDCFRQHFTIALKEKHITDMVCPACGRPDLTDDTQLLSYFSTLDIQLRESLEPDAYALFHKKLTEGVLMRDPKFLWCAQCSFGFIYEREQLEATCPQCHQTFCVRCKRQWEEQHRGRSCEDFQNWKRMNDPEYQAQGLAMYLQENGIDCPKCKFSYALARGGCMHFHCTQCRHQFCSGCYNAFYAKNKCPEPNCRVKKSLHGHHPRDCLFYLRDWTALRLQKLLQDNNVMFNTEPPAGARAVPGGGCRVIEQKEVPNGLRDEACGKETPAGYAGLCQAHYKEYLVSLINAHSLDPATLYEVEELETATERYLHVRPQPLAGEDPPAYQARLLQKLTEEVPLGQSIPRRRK
Myc-tagged HOIP, PUB domain-deleted mutant: residues 165-1072 of Q96EP0
UniProt Q9UDY8: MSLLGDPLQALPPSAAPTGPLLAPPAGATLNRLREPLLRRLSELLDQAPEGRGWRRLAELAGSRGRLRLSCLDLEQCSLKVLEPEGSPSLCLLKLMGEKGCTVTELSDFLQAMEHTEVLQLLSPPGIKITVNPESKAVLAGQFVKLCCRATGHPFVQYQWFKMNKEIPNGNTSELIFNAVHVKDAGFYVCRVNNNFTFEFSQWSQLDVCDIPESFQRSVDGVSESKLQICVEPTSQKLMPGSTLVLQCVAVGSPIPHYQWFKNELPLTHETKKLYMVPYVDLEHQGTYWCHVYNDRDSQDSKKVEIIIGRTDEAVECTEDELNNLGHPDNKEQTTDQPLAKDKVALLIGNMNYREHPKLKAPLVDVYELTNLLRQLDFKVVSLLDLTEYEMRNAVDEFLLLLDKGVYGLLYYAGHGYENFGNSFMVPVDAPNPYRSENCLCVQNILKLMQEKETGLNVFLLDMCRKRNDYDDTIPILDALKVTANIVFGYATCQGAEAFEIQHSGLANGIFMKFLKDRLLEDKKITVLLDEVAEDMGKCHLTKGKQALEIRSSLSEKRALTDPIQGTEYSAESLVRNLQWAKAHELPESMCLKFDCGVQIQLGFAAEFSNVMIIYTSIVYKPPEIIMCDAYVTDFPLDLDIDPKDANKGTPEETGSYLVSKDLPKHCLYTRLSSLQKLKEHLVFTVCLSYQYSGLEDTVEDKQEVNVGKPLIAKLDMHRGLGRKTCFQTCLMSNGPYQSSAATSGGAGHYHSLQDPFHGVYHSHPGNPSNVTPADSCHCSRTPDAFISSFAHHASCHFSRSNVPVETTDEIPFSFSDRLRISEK
UniProt Q96BN8: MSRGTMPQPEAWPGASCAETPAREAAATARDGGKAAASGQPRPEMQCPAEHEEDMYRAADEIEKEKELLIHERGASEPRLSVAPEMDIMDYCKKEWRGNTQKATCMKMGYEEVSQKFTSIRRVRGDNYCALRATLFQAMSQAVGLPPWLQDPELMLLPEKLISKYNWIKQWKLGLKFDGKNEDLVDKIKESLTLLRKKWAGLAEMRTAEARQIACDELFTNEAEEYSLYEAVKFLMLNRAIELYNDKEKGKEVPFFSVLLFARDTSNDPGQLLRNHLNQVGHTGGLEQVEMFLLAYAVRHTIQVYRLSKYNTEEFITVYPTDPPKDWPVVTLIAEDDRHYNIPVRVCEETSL

How the values were obtained:
[1] = target: Myc-tagged HOIL-1L (human) (UniProt Q9BYM8); assay: co-IP; Myc-tagged LUBAC subunits or HOIP mutants co-expressed with FLAG-tagged CBM components and/or FLAG-OTULIN in HEK293T cells; NP-40 buffer (20 mM Tris-HCl pH 7.4, 0.2% NP-40, 150 mM NaCl); anti-Myc immunoprecipitates on protein G agarose, immunoblotted
[2] = target: Myc-tagged HOIP Y82A/N85E/N102A (human) (UniProt Q96EP0); assay: as above
[3] = target: Myc-tagged HOIP, PUB domain-deleted mutant (human) (UniProt Q96EP0); assay: as above
[4] = target: Myc-tagged HOIP, wild type (human) (UniProt Q96EP0); assay: as above
[5] = target: T1, Myc-tagged SHARPIN (human) (UniProt Q9H0F6); assay: as above
T1 sequence: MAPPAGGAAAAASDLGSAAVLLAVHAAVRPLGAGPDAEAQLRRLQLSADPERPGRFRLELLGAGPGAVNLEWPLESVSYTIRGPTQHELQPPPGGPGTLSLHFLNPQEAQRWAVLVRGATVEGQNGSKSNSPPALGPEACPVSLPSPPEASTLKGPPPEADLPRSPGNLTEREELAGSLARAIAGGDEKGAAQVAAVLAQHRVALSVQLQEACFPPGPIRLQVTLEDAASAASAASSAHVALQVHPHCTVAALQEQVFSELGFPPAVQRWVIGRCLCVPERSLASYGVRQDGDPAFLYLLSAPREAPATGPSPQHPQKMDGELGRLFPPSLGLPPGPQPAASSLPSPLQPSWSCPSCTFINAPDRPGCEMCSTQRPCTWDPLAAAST

[6] = target: endogenous MALT1 (CBM complex subunit) of Jurkat cells (human (endogenous in Jurkat)) (UniProt Q9UDY8); assay: co-IP; endogenous proteins; Jurkat cell lysates immunoprecipitated with anti-MALT1 antibody or normal mouse IgG, immunoblotted

FLAG-tagged MALT1, wild type (from UniProt Q9UDY8 1-824)
binding [1]: no binding
binding [2]: binds
binding [3]: no binding
binding [4]: binds
binding [5]: no binding

endogenous HOIP (LUBAC subunit) of Jurkat cells (from UniProt Q96EP0 1-1072)
binding [6]: binds

endogenous OTULIN of Jurkat cells (from UniProt Q96BN8 1-352) (enzyme)
binding [6]: binds
